# Data taken from the supplement of paper PMC11417369.
# Some of the results follow.
# System: PfHDP1 homeodomain (GST-tagged)
# Test: gcPBM binding intensity (ln(normalized median fluorescence intensity)); higher = stronger DNA binding
# In short: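 GST-tagged P. falciparum DNA-binding domains produced in E. coli were incubated for 1 h on an Agilent 4 × 180k array of primer-extended double-stranded 36-bp intergenic genomic probes with negative controls. Binding intensity is the highest Masliner-normalised natural-log median intensity across replicate spots of either probe orientation, with bound protein detected by Alexa488 anti-GST antibody at 488 nm.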
row,Sequence,gcPBM binding intensity (ln)
1,CATACATATAAACACACACACACACCCACCCACAAA [CACACA_site8059],7.88
2,TAGTTAGCCCAAGGGGTGCTAATTACTATCTAAATA,5.8
3,TATAGAAGCAAATTATGTACACAATATGGAAAATCA [XGTACX_site3345],7.04
4,AACACCAATTCATATGCACACACATCTGCATATTAT [CACACA_site8523],9.74
5,TTTATAAATATTCTCACACACTTTTTATTTTAACAA [CACACA_site6454],6.4
6,ATGAATAAATAAGACACACACGAAAATAAGTAAAAA [CACACA_site4216],7.43
7,TATTTTGATTATTCAGTGTATAAATATATATATATA [CACACA_negctrl_site545],8.78
8,TATTTATACCTATACACACACACACGGATATTTATA [CACACA_site7123],7.03
9,ATATGCTTATTGTAAAGTACATTATTATTTTTCCTA [XGTACX_site5479],6.29
10,AATTAACAAAAACACACACACACACCGACAAAAAAA [CACACA_site4444],6.81
11,GATAAAATCACTGGTGCATGTAGATATATAATATTA [TGCATGCA_site589],8.28
12,TACAAATATATATGCACACACATATACATACAGATA [CACACA_site5238],9.83
13,CATATATACGCATACACACACACACCCACACCCACA [CACACA_site1725],7.11
14,TGATGAAAATCTACATGAATGTTTTTATATCTATAT [GTGCAC_negctrl_site139],5.92
15,AATAAATATATACATTGTACATATATAATATATATA [XGTACX_site1458],6.63
16,TAAATTATAATATGCACACAAAATGTTATATTAAAA [CACACA_site376],9.55
17,TATATATATTTTGGCTGTACATCAGCGTATATTTTT [XGTACX_site3233],6.18
18,CCTATCCATGCATATACACACATATCTATTTATATA [CACACA_site6886],7.5
19,AAAAAAAAACAAAAAAGTACAAAATAAAAATACGTT [XGTACX_site4566],6.62

row,Sequence,gcPBM binding intensity (ln)
1,CTCTTCATATATAATTGTACACACAAAAACGACATT [XGTACX_site4287],7.28
2,ATTCTATATGAAAAATGTACAAATAAAAATTCTAAG [XGTACX_site8900],6.47
3,CCAATGTTTTCTTGTGTACACATCATTAAAGAAAAA [CACACA_site5300],7.41
4,CACGCATACAGACACACACACACACCGATATATATA [CACACA_site8113],7.12
5,CATGAAAATATTATGTGTACTTAATGCACATTCAAA [XGTACX_site1952],9.56
6,ATTTACCTATATATTTGTACTTACATAATGCTACCT [XGTACX_site2693],6.97
7,AATATATTGTTTCCTGATATTAAATTCAATTTAATG [GTGCAC_negctrl_site22],6.52
8,TAAAGAGAGACATCAACACACATACGTATGTATAGA [CACACA_site4896],6.66
9,TAAAAAAAAATATATAAACACACATATTTATATACA [CACACA_site8469],6.08
10,AAATTATATACCACAGTGCAAAAGGCAGGTATACGT,9.18
11,TATTATTTTAAGATTGTTTATGTAAAGAATTATGAA [CACACA_negctrl_site445],6.02
12,TTTTTTTTTTTTTGCACACACATATATAAATATATA [CACACA_site3949],9.41
13,TATATTGCAAAAAGTACACACATAAATAAATACATA [CACACA_site6589],9.04
14,GTAGAGAAAAAAATGTGGACACAAAAAATAAAAAGG [XGTACX_site4058],7
15,CAGGAGAGAAAATATCGTACAAGCAAAAATAAGTGG [XGTACX_site8557],6.91
16,ATAAATATTATTTTACGTACATATTTATGAAGTATT [XGTACX_site8746],6.13
17,AAATTATAAAAATGTAGTACAGACAATATATTCGTA [XGTACX_site8307],6.72
18,GTTTATATGTTCATAGTGCATATATGTTGATTTATT,8.56
19,TATAAAAAAAAAAAAAAAAAAAAAAAAAAAAAAAAA [TGCATGCA_negctrl_site42],6.37

row,Sequence,gcPBM binding intensity (ln)
1,TTTTTTTTTTTTTACTGTACTTAATAAGATTGAATA [XGTACX_site2384],6.35
2,AGTGAATATTACGAAACACACAAAAAAATACATTTC [CACACA_site511],6.55
3,TAACTTAATAAAAAAAGTACATATATTTTTAATAAA [XGTACX_site2707],5.9
4,AAATATAATAATACATTGCACATATATTATATATAT [TGCATGCA_negctrl_site611],9.33
5,TGTAATAATCTTCATTTCTTTTTTTTTTTTTTTTGT [CACACA_negctrl_site1388],5.9
6,CTACACACTTATAAATGTACAGGATTTAAGTATATG [XGTACX_site8245],6.36
7,AGTAGTCTGGAGAAGAGTACATAGTATCTGGTAGCT [XGTACX_site2017],6.4
8,TATTTATTTATTTTGTTATAATTAAAATGGATACAT [XGTACX_negctrl_site387],6.28
9,ATAATACCAGAATAGATTTAAATGAATATTTTATTT [CACACA_negctrl_site476],5.91
10,TATAACAAATAAAAATGTACATATATATAATATATA [XGTACX_site6173],6.53
11,ATCTTATCATTTTAAAGTACATAATTAATTCTTTTT [XGTACX_site3999],6.69
12,ATGATATATTTAATAGTGCACTAATTAAAATTATTA [GTGCAC_site9418],10.8
13,TACAGTAAAAATAGTTGTACTTGTTTATTTCTTCTT [XGTACX_site7674],6.07
14,AAAAGGATATATGAAAGTACAAAGGTATAGTATATT [XGTACX_site7385],6.91
15,TTTTGATATATGAATATTAAGTTATATAATATTTTA [TGCATGCA_negctrl_site39],6.18
16,ATGTGTTTGTATATATGTACATATTTATGTTATTTC [XGTACX_site6960],7.28
17,TATATATATAAATACACACACACAAAAAAAAAAAAA [CACACA_site4930],6.82
18,AATTTAATTGTGAGAGTGCGTACTGCTCCACATATA,7.21
19,AAAAAAAAAAAAAAAAAAAAAAAAAAATGAGATACA [GTGCAC_negctrl_site160],7.11
